Experimental data taken from patent US12728139B2, “Methods of preparing purified atomic quantum clusters” (NANOGAP SUB-NM-POWDER, S.A., priority 2018, dated 2026).

Tested on: A549 orthotopic lung cancer
Assay: Orthotopic lung cancer model
Settings: CDDP alone, 37 days, compared to control group

`[NH2][Pt]([NH2])([Cl])[Cl]` [CDDP, Cisplatin] was tested, and the “Lung and mediastinal node luciferase levels ex vivo” value was “significantly reduced lung and mediastinal node luciferase levels”.
